In the supplement of paper PMC11417369:
The list shows a part of the results.

test system: PF3D7_0420300 AP2 domain 1 (GST-tagged); experiment: gcPBM binding intensity (ln(normalized median fluorescence intensity)); higher = stronger DNA binding
Procedure, shortened: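 DNA-binding domains from P. falciparum, fused to GST and produced in E. coli, were put on an Agilent 4 × 180k double-stranded probe array for 1 h in 1× PBS holding 1% milk, 0.2 mg/ml BSA, 0.5% salmon testes DNA and 0.03% Triton X-100. Probes were primer-extended, 36 bp long and drawn from intergenic genomic regions, with negative controls included. After Alexa488 anti-GST antibody detection and a 488 nm scan, binding intensity was set as the highest Masliner-normalised natural-log median intensity across replicate spots of either probe orientation.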

| Sequence | gcPBM binding intensity (ln) |
| --- | --- |
| TTATTTCTACCTTTTTGTACACATTATTATGAAACC [XGTACX_site5325] | 9.41 |
| TATAAAAAATATAATTGTACATAAAGGTTAAAATGT [XGTACX_site6138] | 9.47 |
| AAACAAAAAAGAAACACACACTAATTAAATTTTCTT [CACACA_site4746] | 9.77 |
| TAAATTAATAAAAAGTGTACATAATATACATATATA [XGTACX_site8604] | 9.29 |
| TACAATACCGTACAGGTGCAACTAGCCAAAAAAAAG | 9.46 |
| ATAATTAAAAAAGGAATATATATATATATATATATA [GTGCAC_negctrl_site343] | 8.95 |
| CGTATGACATAATATTGTACTTTTGATATACATCAT [XGTACX_site7366] | 9.13 |
| TTTAATAATATTTAGGTGCTATATATTATATGTATA | 9.12 |
| AAAAAAAAAAAAAACACACAAATCATAAATAAATAT [CACACA_site6362] | 9.56 |
| AAAAAAAAAATTGAAAGTACAAATATGTATTATATA [XGTACX_site2455] | 9.21 |
| TAATAGTATATAAAAAGTACATAATAAGATATGAAA [XGTACX_site1000] | 9.38 |
| ATTATGTGCCAATACACACACACATATATATATATA [CACACA_site468] | 9.9 |
| TAAAATATGTCATGTGGTACATGAATAGCTTTTATT [XGTACX_site3809] | 9.25 |
| AAGGAATAGGCATATACACACAGGTACAGATATATA [CACACA_site4402] | 9.7 |
| TTTAAATATTACATATGTACTTATAAATATATATAT [XGTACX_site1284] | 9.13 |
| TTTTTTTAAATATACACACACATTTATACAGATATA [CACACA_site5811] | 9.65 |
| TTTCTAAAAATAAGAACACACACATATAAGCATATA [CACACA_site8714] | 9.71 |
| ATATCATTTTCTAGCACACACATTGTTATTACCTTG [CACACA_site902] | 9.86 |
| AGTCTGAATAAAATTACACACATATACAGATATATA [CACACA_site5054] | 9.43 |
| TATGTATAATTTCATTGTACTTTTGATATTATCATA [XGTACX_site280] | 9.12 |

| Sequence | gcPBM binding intensity (ln) |
| --- | --- |
| TATTAGAACATATATGCATGCAATAGATATTCCAAT [TGCATGCA_site297] | 9.1 |
| ACTGCGTTTTTACACGCGCACTGCAATGAACAATAT | 9.14 |
| TATGTAACAAAAAAAAGTACACATATATATAGTGTA [XGTACX_site7772] | 9.48 |
| AAGATAATCACAAAATGTACAGGAAATATGACAACC [XGTACX_site3607] | 9.71 |
| AAGAAAAAGGAACGGAAAAACAAACAAGGGGCCCAA [TGCATGCA_negctrl_site4] | 9.75 |
| AATGGTATAAACAATACACACATAATATATATATTG [CACACA_site4997] | 9.66 |
| TTTTCTAAATTAATAATACACACTTGCTAAAATCAT [CACACA_site3207] | 9.11 |
| ATTTAAGCATTATTTTGTACGAAAATAAAAAAATGA [XGTACX_site6958] | 9.01 |
| ATATAAAAAAATAAAACACACACATATATATTATAT [CACACA_site8909] | 10.1 |
| AGTGGTGTTAAATGTTGTACGATTTTGTGTTATTCG [XGTACX_site178] | 9.49 |
| TTTTTGTTATATAAAGTGCAGTGACAAGCAGTTTAA | 9.04 |
| TATAATGCTCTTCTTTGTACATATTATGATTATATT [XGTACX_site2332] | 9.51 |
| ATATATATATAATATAGTACGTATAATATATGAATC [XGTACX_site4385] | 9.48 |
| AAAGGAAAATGTGTAAAAAGAAATGCTAGGTATATA [GTGCAC_negctrl_site699] | 9.61 |
| TAATGCCATAATACGTGTACTTAATATATTAGAACA [XGTACX_site5809] | 9.2 |
| TACATACATACATACACACATACATATGTATATATA [CACACA_site2480] | 9.59 |
| CTCAAATGTTATTGTAGTACCTAAAAAATATATTCT [XGTACX_site1970] | 9.05 |
| GTTGGTAGGCGGTACGGTACACGTAAAGTTTTTCTT [XGTACX_site7706] | 9.34 |
| ATAAATGACAAATTAACACACATATATTATATATAT [CACACA_site3899] | 9.53 |
| ACCATATAAATAAACACACACACACGGATATAAATA [CACACA_site7157] | 10.1 |

| Sequence | gcPBM binding intensity (ln) |
| --- | --- |
| TGAATTTAGATATATACACACAAAAGTATATACAAT [CACACA_site2804] | 9.6 |
| TATATGTTTTATAGTACACACATAAATGGACATACT [CACACA_site2191] | 9.58 |
| CCCACTAAAAAACACACACACACACCCATATATATA [CACACA_site6140] | 10.2 |
| ATATGTATTAAGTGTACACATATAATCTATCTTGTT [CACACA_site5329] | 9.37 |
| TTTTTTTTATATAGTAGTACTAATTAGAATTTTTAT [XGTACX_site7476] | 9.06 |
| ACTAAACGAATAAATTGTACAAAGAAATATATTCAT [XGTACX_site6766] | 9.24 |
| CAACAAAAGTTATTTACACACAAAAGGCAAGGAAAT [CACACA_site7013] | 10 |
| ACTACGTGGATTAGTTCAAGGGAACACGTCCTATAC [CACACA_negctrl_site1427] | 8.99 |
| AAAGGAAATAAAAACGCACACAGAAATAATATCTAT [CACACA_site457] | 9.97 |
| TAAAAAATTACATATTGTACAGGCAAAATTACACAT [XGTACX_site1152] | 9.5 |
| ATATTTCATTTTTGTACACACAACGTTGGAGGGTTT [CACACA_site3043] | 9.65 |
| TCATATAAATACACGTGTACATATATATATTACAGT [XGTACX_site1954] | 9.32 |
| AAAAAATATATATGCACACACAAAAAAACAAATTAA [CACACA_site1278] | 9.94 |
| AATATAAAAAATAGTTGTACTATATTTAAATATGAC [XGTACX_site2937] | 9.31 |
| AGTTTGCATATGGAAGTGCATTACCTTGAACATCAT | 9.12 |
| AACTCATAAAATAATGGTACACAAAAAAAATAAATA [XGTACX_site7648] | 9.5 |
| TTTTTTTTTTTCTTTTGTACGTATAAAATTATATAA [XGTACX_site2453] | 9.1 |
| CAAGGAACCAGACACACACACATAAATGTATTTATA [CACACA_site6491] | 9.82 |
